Hit rate of the full screen: of about 150,000 compounds, about 540 (0.36%) showed an effect of 50% or more. The list shows a part of the results.

The % Inhibition is the change of the read-out against control, counted positive when it falls.

The test system of the assay is Plasmodium falciparum. The assay can be described thus: Primary screen in NF54 nanoGlo assay, in single point, at 2uM, 72h; a lower Z score goes with more inhibition. Type of assay: functional, Erythrocyte. The note with it: timepoint 72 hour.
In the case of `Cc1nc(C(C)C)sc1[C@H](C)N(C)Cc1ccsc1C(=O)O`, the “% Inhibition” value was -7% and the Z score stood at 1.15.

`Cc1nnc(COc2cccc3c2OCCO3)s1`: the “% Inhibition” value is -12% and the Z score is given as 2.16.

For the compound `c1ncc(CN2CCC(CCCN3CCOCC3)CC2)s1`, the “% Inhibition” value is recorded as -4% and the Z score is 0.4.

As to `O=C(CN1C(=O)NC2(CCCCCCC2)C1=O)Nc1ccccc1Br`, the “% Inhibition” value was -6% and the Z score is recorded as 0.91.

Turning to `CC(C)CCNC(=O)[C@]1(C)CN(S(=O)(=O)c2ccccc2)CC(=O)N1C1CCCC1`, the “% Inhibition” value is -22% and the Z score is 2.8.

Regarding `CCCCn1nnnc1CN1CCC[C@H]1c1noc(CC)n1`, the “% Inhibition” value is -17% and the Z score is given as 1.43.

Regarding `CC(=O)Nc1ccc2c(c1)C(=O)N(C)c1ccccc1O2`, the “% Inhibition” value was -12% and the Z score is given as 1.4.

Regarding `Cc1[nH]c(=O)[nH]c(=O)c1CC(=O)N1CCC[C@@]2(CCC(=O)N(CC3CC3)C2)C1`, the “% Inhibition” value worked out at 0% and the Z score is 0.04.

Regarding `COc1cc(N2CCC(CNC(=O)c3cc(C)on3)CC2)nc(OC)n1`, the “% Inhibition” value is -7% and the Z score is given as 0.86.

As for `Cc1cnc2c(C(=O)N3CC4(CCOCC4)CC[C@@H]3CO)cnn2c1`, the “% Inhibition” value was -11% and the Z score is 1.14.

Turning to `CC[C@H](NC1CCOCC1)C(C)(C)c1ccccc1`, the “% Inhibition” value is -3% and the Z score is given as 0.51.

In the case of `COCCCN(Cc1ccc(C(O)(c2ccc(OC)cc2)c2ccc(OC)cc2)o1)Cc1ccccc1OC`, the “% Inhibition” value is reported as 3% and the Z score was -0.38.

With `Cc1nc(CNC2(c3c(F)cccc3F)CCC2)[nH]c1C`, the “% Inhibition” value is on record as -11% and the Z score came out at 1.15.

`CCOc1ccccc1COC(=O)c1cnc2c(c1)ncn2C`: the “% Inhibition” value is on record as -9% and the Z score is on record as 1.1.

`COCC(=O)N1CCN(c2ccc(F)cc2)C(=O)[C@@H]1C`: the “% Inhibition” value is given as -14% and the Z score stood at 2.74.

Consider `Cc1ccc(S(=O)(=O)NC[C@H]2O[C@@H](CC(=O)N3CCN(c4ccccc4)CC3)[C@H](O)[C@@H]2O)cc1`, for which the “% Inhibition” value stood at 5% and the Z score is given as -0.83.

Regarding `Cc1c(Cl)cccc1C(=O)N(C)Cc1cnccn1`, the “% Inhibition” value came to 2% and the Z score is listed as -0.4.

Regarding `Cc1cc(C)n(-c2cc(N3CC(C(=O)Nc4ccc(S(N)(=O)=O)cc4)C3)ncn2)n1`, the “% Inhibition” value is given as 14% and the Z score is on record as -1.82.

Regarding `Cc1ccc(C2(c3noc(COc4cccnc4N)n3)CCCC2)cc1`, the “% Inhibition” value is on record as -11% and the Z score is 1.82.

Take `Cc1cccc(N2CCN(C(=O)Nc3ccn(CCC#N)n3)CC2)c1C`: the “% Inhibition” value is reported as -8% and the Z score amounted to 1.28.

Turning to `CS(=O)(=O)NC(=O)c1ccc(Cl)cc1F`, the “% Inhibition” value was -23% and the Z score is given as 2.53.

`COCCN(C(=O)c1cnn(-c2ccccc2)n1)C1CC1`: the “% Inhibition” value was -7% and the Z score stood at 0.66.

Take `C1=CCC(NC(=NC[C@H]2CCCCO2)NCc2nc(C3CC3)no2)C1`: the “% Inhibition” value is reported as -2% and the Z score is listed as 0.46.

The values are drawn from ChEMBL document CHEMBL4888484, “Replenishing the malaria drug discovery pipeline: Screening and hit evaluation of the MMV Hit Generation Library 1 (HGL1) against asexual blood stage Plasmodium falciparum ,using a nano luciferase reporter read-out” (2022).
